The record followed here is article PMC12136788.

The other results are listed elsewhere or left out.

B1: chr1:46067948:46067949:+_ENSG00000132780_ENST00000351223|hu_hu|FALSE|FALSE (ssRNA)
RNA: GGGAGUUCUACAGUCCGACGAUCUUCCUGGAAUGCAUUGACAGCUGCUGGAAUAUCCCCCAUCACCAGAUGUUUCUGUCCUAAACCCAAUAGUUUCUUAGCUUCACUAUCCACAUCCAGACUCUCCACUUUAUCUGCAGAUGUCAACAGAGGAUUGAGCAUCA
B2: chr18:51681570:51681571:-_ENSG00000134046_ENST00000256429|hu_hu|motif|central (ssRNA)
RNA: GGGAGUUCUACAGUCCGACGAUCGAUAUAUACAUCAAAAAUACAUCUAAAAAGGCAUUGGUUAGUGCUAUUAAAAAGCUCGGUGUGCUCGGGUACAUUUUUUUUCUUACAGGCAAAAGCCAGUGGAAACAUUUUUGUUCAAUUCAACAGAGGAUUGAGCAUCA
B3: chr15:5129413:5129414:+_ENSMUSG00000050697_ENSMUST00000051186|mus_hu|FALSE|FALSE (ssRNA)
RNA: GGGAGUUCUACAGUCCGACGAUCAAAACAAAGAGGGAGGGAUAUGGAAGAAGUUAUCCAGACUGUUACUACUGCUGGAAGAUACUAGCUAUUUAUGAAGUUAAGGAGCCCAGAAAACAAAAUCACCUAUAAAGGUCUUGGGAACAACAGAGGAUUGAGCAUCA
B4: chr1:55207850:55207851:+_ENSMUSG00000025979_ENSMUST00000162364|mus_hu|motif|central (ssRNA)
RNA: GGGAGUUCUACAGUCCGACGAUCCCGAUGAUGAAAAUAAGCAUGUGAAAAUAUUCUGUAAAUCCUACGGCAUACUGAUCCGGGUUUCGCUACAGAUGAUUCCUUUAUGCUAACCCUGCUGGGAAAAUAUUUAUUGCUAUUCAGCAACAGAGGAUUGAGCAUCA
B5: chr5:138658563:138658564:+_ENSG00000015479_ENST00000502499|hu_mus|motif|central (ssRNA)
RNA: GGGAGUUCUACAGUCCGACGAUCAUCUUUUUUCACAGCUUUAUCUGAAGGCUCCUUUUUCCCAUCAGAAGAUACAUCCCCGGAAUUAGCAAGAUCGGUCUCAUCGCCCACUGAACUACCACUUUCUAGUAGUGCUGCAGCUUCCAACAGAGGAUUGAGCAUCA
B6: 120672017_120672256_5933_CDS_ENSMUSG00000025153_ENSMUST00000055655|mouse|control|control (ssRNA)
RNA: GGGAGUUCUACAGUCCGACGAUCGGCCCCCUCCAGUGAGCUCACGUUGCUUGUUGACACGAGCACUUGGAUGCCCUGGCGUCUCCACUCCCGAAUGUGCUUGGCUUGGUAGCCGGUGCGGAUUCCAGAUCGGGAAGUCAGCACCAACAGAGGAUUGAGCAUCA
B7: chr14:102368134:102368135:+_ENSG00000078304_ENST00000445439|hu_hu|hu_hu_hu_mus_True|68_78 (ssRNA)
RNA: GGGAGUUCUACAGUCCGACGAUCAAGAGGCUCCAUGAUCUUCACAAACUCUGAUGGUUCAAUGACAUCUAAAAUCUCUUCUAAUUCAUUUAAGAACAUUACUUCUUUUGGACUGUGAGUCUUUGGCCAGUAUUUGAGAAGUGCCAACAGAGGAUUGAGCAUCA
B8: chr17:45747064:45747065:+_ENSG00000108424_ENST00000290158|hu_hu|hu_hu_hu_mus_True|28_98 (ssRNA)
RNA: GGGAGUUCUACAGUCCGACGAUCGCCCACAGUCCACGCAGCUGUAUCUCGAACAACUACACUGGGGUCUUUCAUUAGUUCUAUUAGGGUGGGCAUAGCCUGUAUGACUAGUGGUUUCAGUUGAUUAGGCUCUGGUCCUUCCAACAACAGAGGAUUGAGCAUCA
B9: 104830079_104830199_188_5pUTR_ENSMUSG00000028517_ENSMUST00000064139|mouse|control|control (ssRNA)
RNA: GGGAGUUCUACAGUCCGACGAUCUGCCCCGGACGCGUCCGGCUGGCGUGCGUCUGCGUGCUGGAGUUUGCGAGUGGGCAGCGUCGGCGUCCCGCCACGAUCCUCCGCAGCUACUUAAUGAAUGGAGCAGCGCGGAGCCCUGCACAACAGAGGAUUGAGCAUCA
B10: chr19:8913615:8913616:-_ENSMUSG00000071658_ENSMUST00000096259|mus_hu|mus_mus_mus_hu_False|58_78 (ssRNA)
RNA: GGGAGUUCUACAGUCCGACGAUCAGGGUACCAAAACCUUCUGCCUGAAAUGGGUGCCCCACCCUGCAGGGAGUUGCAGCUAAAAAUAUCUGAUGCAGAAGCAGUGACUAUACGAAAGGAGGCCCCUGGGGAGGGCCAGGCCAGCAACAGAGGAUUGAGCAUCA
B11: 130609336_130615730_1729_3pUTR_ENSMUSG00000031256_ENSMUST00000033609|mouse|control|control (ssRNA)
RNA: GGGAGUUCUACAGUCCGACGAUCCCUUCUCAUGAUCCUGGGGUGUGACUUGGCUCUGUCCAGGACUAAAGCCACCAGGCUGGCUUCCACCUUGCAUGCUUGCUCCUUGCAUGCCUGCUCCCUGCAUGACUGGUACCUGUCUGGCAACAGAGGAUUGAGCAUCA
B12: chr10:112764417:112764418:+_ENSG00000108061_ENST00000369452|hu_hu|motif|central (ssRNA)
RNA: GGGAGUUCUACAGUCCGACGAUCGAUGGUAGAAAACUGAGAUGGACCACCCACUGGAUACAACUGGAAGCAAUUUCGGGCGGAGGUCAAACUAUUCAGUUUCACAAGACUUGAUAAAAGACUCUCUGGUAAAGUAGAAAUGUUCAACAGAGGAUUGAGCAUCA
B13: 31665681_31665801_2464_3pUTR_ENSG00000169926_ENST00000307145|human|control|control (ssRNA)
RNA: GGGAGUUCUACAGUCCGACGAUCCCUGGAGCCUCCAGGCAGGACAAGGAGAAGCAGGAGGAAAAGGGAGGAGGAGUCCAGGGGAAACGGAGAGGCUGGAGGUUUGCUAAGUCUGAGUUGGGGACAUGGUGGGUCUGAGAAAAGCAACAGAGGAUUGAGCAUCA
B14: chr1:174973770:174973771:+_ENSG00000116161_ENST00000406752|hu_mus|FALSE|FALSE (ssRNA)
RNA: GGGAGUUCUACAGUCCGACGAUCGAGUUCCGUCUCAAUCUUGGACUUUUCACUUGUAAGAGUAUCACGUAGUCUUUUCCUAGUGGACUUUUCCAGCAAUACUUUGACCUCUUCUAGGUCUUUCUGCAACUCUUCCAAAACGGACAACAGAGGAUUGAGCAUCA
B15: chr17:80203902:80203903:-_ENSG00000141551_ENST00000269361|hu_hu|motif|central (ssRNA)
RNA: GGGAGUUCUACAGUCCGACGAUCAGUGCUGCCUUCCGAUGGGAGACGAGCAGCUACUUGCCGUGGUGUUCGAAAGGAAUGCGGUUCUGUGAGGUGGACAUGCGAGAGGUAUCUUGUCGGCCUGUGAGGUCGGACGAGGAGAUGCAACAGAGGAUUGAGCAUCA
B16: chr5:128440902:128440903:+_ENSG00000066583_ENST00000173527|hu_mus|hu_hu_hu_mus_True|68_108 (ssRNA)
RNA: GGGAGUUCUACAGUCCGACGAUCUUGAACCGUGCUCCCAAGUCCUUUGGGGUAUUGUUCCGUUAUGAUAACAGGAAUCCCUAAGAUCCGAGCUCCUUGCAACAGUCUCUGUCCCACACUAAUGAUGUCCCCAAAGUAUUUGAUCAACAGAGGAUUGAGCAUCA
B17: chr11:100581416:100581417:-_ENSMUSG00000019173_ENSMUST00000107364|mus_mus|FALSE|FALSE (ssRNA)
RNA: GGGAGUUCUACAGUCCGACGAUCCCCGCCAUGGCGCGCUGCUCUGUAGUAGUACCAGUGAGCGUGGGGGUGGGGCCGGUGCUAUGCAAAGAGGCACUUAAUGGGAAGGGAGGCCUCCAACGCGGCUCCGGGCAGCAGCGUUACCAACAGAGGAUUGAGCAUCA
B18: chr8:79514811:79514812:+_ENSG00000171033_ENST00000352966|hu_mus|FALSE|FALSE (ssRNA)
RNA: GGGAGUUCUACAGUCCGACGAUCAGAUACUAAGACUGAACUCAGGCAAUAUUCACAUUCAUGGAUAUUUCCACAUGCCUGUAUAAUAAAGCAAAGUGGGCUCAGUGAGUCUAGUGGAUGUAACCCUCGGCAGUUAUCAAGAGGCAACAGAGGAUUGAGCAUCA
B19: chr5:37680062:37680063:+_ENSMUSG00000029121_ENSMUST00000031004|mus_hu|mus_mus_mus_hu_False|18_98 (ssRNA)
RNA: GGGAGUUCUACAGUCCGACGAUCUUUGGGUGUAGCUGGCACCUCGUACACAGGACCGUCAUACAUGCCCCUGGAAACCCCUUGCAAUCCAAAAACCUUAUUCCUGAUUUUGACGCGCUGGUAGAGAUGCUCCGGGAACGCCUUCAACAGAGGAUUGAGCAUCA
B20: 49560123_49560243_1055_CDS_ENSMUSG00000037892_ENSMUST00000035931|mouse|control|control (ssRNA)
RNA: GGGAGUUCUACAGUCCGACGAUCCAUGUCGGAGGCGGUGAGCUGAAGCUCGUAGCUAGCCUUCAGCUCCCGAUCCAACUCUUUCACCACUAUGAGUUCAGCGUACUUGGCCCCGUCUGUCCUGGUUCGCACUUCGAUAUUAAACAACAGAGGAUUGAGCAUCA
B21: chr14:78183846:78183847:+_ENSG00000119705_ENST00000557342|hu_hu|hu_hu_hu_mus_False|1_98 (ssRNA)
RNA: GGGAGUUCUACAGUCCGACGAUCUCUCAGAAAUCUUUCUUUCUUUUAUGUUUGAGCUCCGUGCAAAGCCUUUGCUCUUUGAGCUUGAACGUGGAUCUAUGGGAGGGAAAGCACUGUCAGAAAAGGUAAUUUUUUUUUCCGAAGCAACAGAGGAUUGAGCAUCA
B22: chrX:71549400:71549401:+_ENSMUSG00000019087_ENSMUST00000019231|mus_hu|mus_mus_mus_hu_False|28_38 (ssRNA)
RNA: GGGAGUUCUACAGUCCGACGAUCGCAGUAGGAAGAGGGAAGCUCUUCAGUCCAGUGCGCUGCAGGGUGGGAAAGCAACAACACGGACACCGUCCCACCUCAAUUCCUCUCAGGUGUACAGGGUCACACAAUCUGGGUCAAAGACAACAGAGGAUUGAGCAUCA

The target of the experiment is T1, UNK ZnF1-3 (human, UniProt Q9C0B0 31-174).
T1 sequence: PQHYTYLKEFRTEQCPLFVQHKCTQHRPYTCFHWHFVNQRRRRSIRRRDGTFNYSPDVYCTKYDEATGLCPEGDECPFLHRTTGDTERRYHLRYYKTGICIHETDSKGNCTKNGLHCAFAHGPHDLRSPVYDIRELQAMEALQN
As to the kind of experiment: nsRBNS (natural sequence RNA bind-n-seq); RBNS binding buffer (assumed for nsRBNS): 25 mM Tris pH 7.5, 150 mM KCl, 3 mM MgCl2, 0.01% Triton X-100, 500 ug/ml BSA, 20 U/ml SUPERase-In, 4 C; UNK is unkempt and MSI1 is Musashi-1; names of the RNAs are library labels; protein concentration not given here; high values mean tight binding.
B1 displayed a binding signal of 0.915 enrichment R.
Molecule B2 showed a binding signal of 1.06 enrichment R.
B3 registered a binding signal of 1.8 enrichment R.
In the case of B4, the binding signal worked out at 1.25 enrichment R.
Consider B5, for which the binding signal amounted to 0.798 enrichment R.
On to B6, for which the binding signal is 0.707 enrichment R.
B7: the binding signal came to 0.706 enrichment R.
In the case of B8 it was 0.661 enrichment R; in that of B9, 0.74 enrichment R; in that of B10, 1.81 enrichment R.
The molecule B11 gave a binding signal of 0.581 enrichment R.
On to B12, for which the binding signal stood at 1.3 enrichment R.
B13 showed a binding signal of 2.42 enrichment R.
Molecule B14 returned a binding signal of 0.405 enrichment R.
In turn, B15 came in with a binding signal of 0.931 enrichment R.
In the case of B16 it was 0.776 enrichment R; in that of B17, 1.05 enrichment R.
In turn, B18 registered a binding signal of 0.712 enrichment R.
The molecule B19 registered a binding signal of 0.901 enrichment R.
In the case of B20, the binding signal was found to be 0.851 enrichment R.
The molecule B21 gave a binding signal of 1.04 enrichment R.
On to B22, for which the binding signal amounted to 1.34 enrichment R.
